# Assay results reported in PubChem BioAssay (NCI).
#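 48-hour exposure; five concentrations; linearly interpolated endpoints. GI50 marks 50% less growth.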 The source holds more than one record for some entries. The list is limited to them. The source may hold further records. For some assays here: A record mostly stands for its own series of concentrations, which the source does not state; a value can be the end of its range. For some assays here: Values given together are repeated measurements across runs, samples, wells, individuals or studies. Records carry a tag for their origin. The letters are not those of the source and start again with each entry.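 TGI: total growth inhibition.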
# Key:
# Test in all cases: growth of human tumour cells (NCI), 48 h
# HOP-92 NSCLC = test system: HOP-92 NSCLC
# K-562 leukemia = test system: K-562 leukemia
# RPMI-8226 leukemia = test system: RPMI-8226 leukemia
# SF-295 CNS = test system: SF-295 CNS
# 786-0 renal = test system: 786-0 renal
# HOP-62 NSCLC = test system: HOP-62 NSCLC
# UACC-62 melanoma = test system: UACC-62 melanoma
Structure (SMILES),GI50 (HOP-92 NSCLC),GI50 (K-562 leukemia),TGI (RPMI-8226 leukemia),GI50 (SF-295 CNS),GI50 (786-0 renal),GI50 (HOP-62 NSCLC),GI50 (UACC-62 melanoma)
Nc1nc(N)c2c(ccc3c2ccn3Cc2cccc([N+](=O)[O-])c2)n1,1.27 µM and 28 nM,7.31 nM and 191 nM,2.81 µM and 75.9 nM,547 nM and 14.3 nM,,,
N#Cc1ccc(-c2ccc(Cl)cc2)n(C2OC(CO)C(O)C(O)C2O)c1=S (stereo not drawn),,,,"> 100 µM [sample A, 1 test] and 3.64 µM [sample B, 1 test]","> 100 µM [sample A, 1 test] and 5.73 µM [sample B, 1 test]","> 100 µM [sample A, 1 test] and 5.53 µM [sample B, 1 test]","> 100 µM [sample A, 1 test] and 5.53 µM [sample B, 1 test]"
